{"source": "PubChem BioAssay AID2546", "about": "(National Center for Advancing Translational Sciences (NCATS), 2010)", "note": "Where “and” joins values, the source holds several entries; their conditions need not be identical. Equal entries are not always repeated. The whole screen tested about 310,000 compounds, of which about 11,000 (3.5%) were called active. The inconclusive results got no clear call from the source; some entries with a clear call stand among them for comparison. Calls follow the shape of the dose curve; as a rule, active = well fitted inhibition curve with a large enough effect; inconclusive = small, poorly fitted or top-dose-only effect, or effect the other way; inactive = flat fitted curve, though single readings scatter. A potency beside an inconclusive call is a rough fit, not a confirmed value. % is scaled to controls: 0 for no effect and ±100 for the full control effect; potency is read from the fitted curve at half-maximal effect; tags tell the direction and shape of the fitted curve.", "data": [{"assay": "VP16 counterscreen qHTS for inhibitors of ROR gamma transcriptional activity;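 also: Gal4-VP16 expression switched on by copper sulfate through the metallothionein promoter; nearly all actives have a fitted effect of over 50% in size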", "details": "Drosophila S2 Gal4-VP16 UAS-luciferase, luminescence, 20 h; activity, negative = inhibition: at 53.6 µM (top of the series)", "values": [{"smiles": "O=C(Nc1ccc2c(c1)OCO2)c1ccc2c(c1)OCO2", "Potency": "inconclusive: 11.2 µM [inhibitor, partial curve]"}, {"smiles": "Cn1c(CCN2CCCCC2)nc2cc([N+](=O)[O-])ccc21", "Potency": "inconclusive: 11.2 µM [inhibitor, partial curve, poor fit]"}, {"smiles": "CN(C)c1ccc(CNc2ccccn2)cc1", "Potency": "inactive"}, {"smiles": "O=C(CCSc1ccccc1)Nc1ncccn1", "activity, negative = inhibition": "inactive: 3.11% [at 0.365 µM]"}, {"smiles": "COc1ccc(CN2CC(=O)N(c3ccc(C)c(C)c3)C2=S)cc1OC", "Potency": "inactive"}, {"smiles": "COC(=O)CSc1nc(C)cc(C)c1C#N", "Potency": "inactive"}, {"smiles": "Cc1ccc(N=C(NOCc2ccc(Cl)cc2Cl)c2nonc2N)c(C)c1", "Potency": "inactive"}, {"smiles": "OC[C@@H]1[C@@H](c2ccc(Cl)cc2)C(c2ccc(F)cc2)=NN1c1ccccc1", "Potency": "inconclusive: 35.5 µM [inhibitor, single point]"}, {"smiles": "CC(C)(C)c1cc(OC(=O)C2CCCC2)ccc1O", "Potency": "active: 11.2 µM"}, {"smiles": "CCC(C)/C(C)=N/NC(=O)CNS(=O)(=O)c1ccc([N+](=O)[O-])cc1", "note": "(stereo not given)", "Potency": "inactive"}, {"smiles": "Cc1n[nH]c(C)c1S(=O)(=O)N1CCCC(C(=O)NC2CCCc3ccccc32)C1", "note": "(stereo not given)", "Potency": "inconclusive: 22.4 µM [inhibitor, single point]"}, {"smiles": "COc1ccc(Br)cc1S(=O)(=O)N1CCCc2ccccc21", "Potency": "inconclusive: 12.6 µM [inhibitor, partial curve, poor fit]"}, {"smiles": "Cc1cc(C(F)(F)F)nn1Cc1ccc(C(=O)NCc2ccco2)o1", "Potency": "inconclusive: 22.4 µM [inhibitor, single point]"}, {"smiles": "COc1ccc(C)cc1S(=O)(=O)N1CCC(C(=O)NC2CCCC2)CC1", "Potency": "inactive"}, {"smiles": "Clc1ccc(C2CC(c3cccs3)n3ncnc3N2)c(Cl)c1", "note": "(stereo not given)", "Potency": "inconclusive: 25.1 µM [inhibitor, single point]"}, {"smiles": "Cc1ccc(/C=C/C(=O)Nc2ccc([N+](=O)[O-])c(NC(=O)/C=C/c3ccc(C)o3)c2)o1", "Potency": "inconclusive: 35.5 µM [inhibitor, single point]"}, {"smiles": "Oc1ccc(NCc2ccccc2OCc2ccccc2F)cc1", "Potency": "active: 15.8 µM"}, {"smiles": "Cc1ccc2nc(-c3sc4nc(C)ccc4c3N)[nH]c2c1", "Potency": "inactive"}, {"smiles": "CCOc1ccc(S(=O)(=O)/N=C(/c2ccccc2)N(C)C)cc1", "Potency": "inactive"}, {"smiles": "O=C(O)c1ccc(Nc2c3ccccc3nc3ccccc23)cc1", "Potency": "active: 20 µM"}, {"smiles": "COc1ccccc1-c1nnc(SCC(=O)NC2CCS(=O)(=O)C2)n1N", "note": "(stereo not given)", "Potency": "inactive"}, {"smiles": "Cc1cc(C(=O)CN2C(=O)CCC2=O)c(C)n1Cc1ccccc1", "Potency": "inconclusive: 17.8 µM [inhibitor, single point]"}, {"smiles": "Oc1ccc(O)cc1", "Potency": "inconclusive: 35.5 µM [inhibitor, single point] and inconclusive: 20 µM [inhibitor, single point]"}, {"smiles": "CC(=O)c1cccc(NS(=O)(=O)c2ccc(N/C=C\\C(=O)c3ccc(C)cc3)cc2)c1", "Potency": "inconclusive: 31.6 µM [inhibitor, single point]"}, {"smiles": "CC(C)C(=O)Nc1ccc(C(=O)NNC(=S)NC(=O)c2cccs2)cc1", "Potency": "inconclusive: 11.2 µM [inhibitor, partial curve]"}, {"smiles": "COc1cc2c(cc1OC)C1O[C@](c3ccsc3)(C2)OC2=C1C(=O)OC1(CCCCC1)C2", "Potency": "inconclusive: 3.16 µM [inhibitor, single point]"}, {"smiles": "Cc1ccc(-c2n[nH]c(=S)n2C)cc1", "Potency": "inconclusive: 25.1 µM [inhibitor, single point]"}, {"smiles": "O=C(CN1CCN(c2ccccc2F)CC1)Nc1ccc2c(c1)CCC2", "Potency": "active: 22.4 µM"}, {"smiles": "COc1ccc(OC)c2[nH]c(=O)c(CCNC(=S)NC(C)(C)C)cc12", "Potency": "active: 11.2 µM"}, {"smiles": "O=C(c1ccc(S(=O)(=O)NCC2CCCO2)cc1)N1CCc2ccccc21", "note": "(stereo not given)", "Potency": "inconclusive: 22.4 µM [inhibitor, single point]"}, {"smiles": "Nc1c(C(=O)NCc2ccc3c(c2)OCO3)c2nc3ccccc3nc2n1CCCN1CCOCC1", "Potency": "inconclusive: 12.6 µM [inhibitor, partial curve]"}, {"smiles": "c1ccc2c(OCCCCN3CCCC3)cccc2c1", "Potency": "inactive"}, {"smiles": "CC(C)(C)c1ccc(NC(=O)c2ccccc2)c([N+](=O)[O-])c1", "Potency": "inactive"}, {"smiles": "CCOC(=O)C1(Cc2ccccc2)CCCN(C(=O)c2ccc(-n3ccnc3)cc2)C1", "note": "(stereo not given)", "Potency": "inconclusive: 35.5 µM [inhibitor, single point]"}, {"smiles": "COCCn1c(C)cc(C2=NNC(=NC3CC3)SC2)c1C", "Potency": "active: 1.12 µM"}, {"smiles": "O=C(O)CCn1nnc2ccccc21", "Potency": "inactive"}, {"smiles": "O=C(Nc1nc(-c2ccc(-c3ccccc3)cc2)cs1)C1=COCCO1", "Potency": "inconclusive: 31.6 µM [inhibitor, single point]"}, {"smiles": "O=C(NCCO)C(=O)Nc1cc2c3c(c1)CCC(=O)N3CCC2", "Potency": "inconclusive: 0.316 µM [inhibitor, single point]"}, {"smiles": "O=C1c2ccsc2SCCN1Cc1ccc(Cl)cc1", "Potency": "inactive"}, {"smiles": "[N-]=[N+]=NC[C@H](Cc1ccccc1)N1CC[C@@H](OCc2ccccc2)CCC1=O", "Potency": "inconclusive: 11.2 µM [inhibitor, partial curve]"}, {"smiles": "COc1cccc(NC(=O)C2CC(=O)n3cnnc3S2)c1", "note": "(stereo not given)", "Potency": "inconclusive: 35.5 µM [inhibitor, single point]"}, {"smiles": "CC/C(C)=N\\Nc1nc(-c2cc3cc(OC)ccc3oc2=O)cs1", "Potency": "inconclusive: 35.5 µM [inhibitor, single point]"}, {"smiles": "CC(C)NC(=O)C1CCN(C2CCN(C(=O)c3cc4c(s3)CCCCC4)CC2)CC1", "Potency": "active: 7.94 µM"}, {"smiles": "O=C(O)CCCC(=O)Nc1nc(-c2ccccc2)cs1", "Potency": "inconclusive: 28.2 µM [inhibitor, single point]"}, {"smiles": "NS(=O)(=O)c1ccc(CCNc2ccccc2[N+](=O)[O-])cc1", "Potency": "inconclusive: 8.91 µM [activator, partial curve]"}, {"smiles": "O=C(N/N=C\\c1ccc(CNS(=O)(=O)c2ccc(Cl)cc2)o1)C(=O)Nc1ccc(Oc2ccccc2)cc1", "Potency": "active: 12.6 µM"}, {"smiles": "COc1ccc(Cl)cc1/C=C(\\C#N)C(N)=O", "Potency": "inactive"}, {"smiles": "Cc1ccc(-c2nnc(N3CCC(C)CC3)c3ccccc23)cc1", "Potency": "inconclusive: 25.1 µM [inhibitor, single point]"}, {"smiles": "CNC(=S)N1CCN(S(=O)(=O)c2ccc3ccccc3c2)CC1", "Potency": "inactive"}, {"smiles": "O=C(CCCN1C(=O)/C(=C/c2ccccc2Cl)SC1=S)NCCCN1CCOCC1", "Potency": "active: 12.6 µM"}, {"smiles": "COc1ccc2nc(NC(=O)c3ccoc3C)sc2c1", "Potency": "inconclusive: 10 µM [inhibitor, single point]"}, {"smiles": "O=C(CSc1nnc(-c2ccc(F)cc2)c2ccccc12)Nc1ccccc1", "Potency": "inactive"}, {"smiles": "Cc1ccc(C)c(N2CCN(CCCNC(=O)Cn3cccc3C(=O)c3ccccc3C)CC2)c1", "Potency": "inconclusive: 22.4 µM [inhibitor, single point]"}, {"smiles": "CN(C(=O)CSc1nc(N)c2c3c(sc2n1)CSC(C)(C)C3)c1ccccc1", "Potency": "inactive"}, {"smiles": "Cc1cccc(C)c1NC(=S)Nc1ccc(Cl)c(Cl)c1", "Potency": "inconclusive: 35.5 µM [inhibitor, single point]"}, {"smiles": "COc1ccc(NC(=O)c2cc3ccccn3n2)cc1", "Potency": "inconclusive: 14.1 µM [inhibitor, single point]"}, {"smiles": "C/C(CC1CC(C)(C)OC1=O)=N\\NC(N)=S", "note": "(stereo not given)", "Potency": "inconclusive: 22.4 µM [inhibitor, single point]"}, {"smiles": "CCOC(=O)c1c(C)[nH]c(C)c1C(=O)CSc1nc2ccccc2n1CCOC", "Potency": "inconclusive: 20 µM [inhibitor, single point]"}, {"smiles": "O=[N+]([O-])c1ccc(Oc2ccc(S(=O)(=O)Nc3ccccc3)cc2)cc1", "Potency": "inconclusive: 28.2 µM [inhibitor, single point]"}, {"smiles": "CCOC(=O)C1(Cc2cccc(F)c2)CCN(C(=O)c2ccoc2C)CC1", "Potency": "inconclusive: 11.2 µM [activator, single point]"}, {"smiles": "CCCCN(CC)S(=O)(=O)c1ccc(C(=O)Nc2nnc(COC)o2)cc1", "Potency": "active: 3.16 µM"}, {"smiles": "OCCCc1nc2ccccc2n1CCc1ccccc1", "Potency": "inactive"}, {"smiles": "C/C(=N\\NC(=O)c1cccc(N/N=C(\\C)c2cc(O)ccc2O)c1)c1cc(O)ccc1O", "Potency": "inconclusive: 35.5 µM [inhibitor, single point]"}, {"smiles": "COC(=O)c1cc(N2C(=O)C3C(C2=O)C2(C)C=CC3(C)O2)ccc1Cl", "note": "(stereo not given)", "Potency": "active: 5.62 µM"}, {"smiles": "CC1Cc2ccccc2N1C(=S)NC(=O)C1(C)CC1(Cl)Cl", "note": "(stereo not given)", "Potency": "active: 2.24 µM"}, {"smiles": "CCN(CC)C(=S)NC(=O)c1cc(OC)c(OC)c(OC)c1", "Potency": "inconclusive: 3.98 µM [inhibitor, single point]"}, {"smiles": "CCC(C(=O)OCC(=O)Nc1ccc(C(=O)Nc2ccc(OC)cc2)cc1)c1ccccc1", "note": "(stereo not given)", "Potency": "inconclusive: 35.5 µM [inhibitor, single point]"}, {"smiles": "COc1ccccc1C(=O)Nc1cccc2c1CCCC2", "Potency": "inactive"}, {"smiles": "COc1ccc(C(=O)C=CNNC(=O)c2ccc(Cl)cc2)cc1", "Potency": "inconclusive: 3.16 µM [inhibitor, single point]"}, {"smiles": "CCc1ccc(CNc2ccc(O)cc2)cc1", "Potency": "inconclusive: 28.2 µM [inhibitor, single point]"}, {"smiles": "CN(C)CCN1C(=O)c2oc3ccccc3c(=O)c2C1c1cccc(Br)c1", "note": "(stereo not given)", "Potency": "inactive"}, {"smiles": "Cc1c(Cl)cccc1Nc1nc(N)nc(CSc2nc3ccccc3s2)n1", "Potency": "inconclusive: 35.5 µM [inhibitor, single point]"}, {"smiles": "Cc1cc2c(C)nc(N/N=C/c3ccc(F)cc3)nc2o1", "Potency": "inconclusive: 6.31 µM [activator, single point]"}, {"smiles": "Cc1ccc(SCC(=O)Nc2cc([N+](=O)[O-])ccc2O)cc1", "Potency": "inconclusive: 35.5 µM [inhibitor, single point]"}, {"smiles": "COc1ccc(-c2noc(N3CCC(C(=O)N4CCN(c5ccccn5)CC4)CC3)n2)cc1", "Potency": "inconclusive: 12.6 µM [inhibitor, partial curve]"}]}]}
